In PubChem BioAssay AID588453 (National Center for Advancing Translational Sciences (NCATS), 2011):
“And” between values parts separate entries of the source, which are not always exact repeats. Identical values can stand only once. In all, about 390,000 compounds went through this assay and about 4,000 (1%) were called active. The inconclusive results got no clear call from the source; some entries with a clear call stand among them for comparison. The call rests on the fitted dose curve; in most records, active means well fitted inhibition curve with a large enough effect; inconclusive means small, poorly fitted or top-dose-only effect; inactive means no such curve, though single readings can be large or run the other way. Potencies of inconclusive entries are doubtful fits and often do not repeat.

Each compound was assayed against Thioredoxin reductase 1, cytoplasmic (Rattus norvegicus) (UniProt O89049) (assay: qHTS Assay for Inhibitors of Mammalian Selenoprotein Thioredoxin Reductase 1 (TrxR1): qHTS). Conditions: recombinant rTrxR1, NADPH fluorescence consumption, selenite substrate; series mostly up to 114 µM.
Source text: The selenoprotein thioredoxin reductase (TrxR; EC 1.8.1.9) is a FAD containing homodimeric pyridine nucleotide-disulfide oxidoreductase with many cellular roles. Together with NADPH and its prime substrate thioredoxin (Trx), the enzyme forms the core of the Trx system. The mammalian Trx system exerts a wide spectrum of functions including redox regulation, antioxidant defense, regulation of transcription factors as well as support of cell growth and replication. Many of these functions involve the reduction of Trx, which may subsequently reduce a number of different substrates including ribonucleotide reductase, peroxiredoxins or NFkB. Mammalian TrxR itself also has a broad substrate specificity, reducing both protein and non-protein substrates, including low molecular weight compounds such as dehydroascorbate, lipoic acid, ubiquinone, and juglone. In addition, several drugs in clinical use for anticancer treatment are indeed known to target TrxR1.
This BioAssay is a validation of an NADPH fluorescence-based, dual-purpose qHTS rTrxR1 assay designed to find potential inhibitors and substrates of rTrxR1. For this particular BioAssay, actives are potential inhibitors. See related BioAssay for substrate data deposition.
NIH Molecular Libraries Probe Production Network [MLPCN]
NIH Chemical Genomics Center [NCGC]
Assay Provider: Elias Arner, Karolinska Institute
Assay protocol: 2 uL of reagents (buffer in column 4 as negative control and 90 nM rTrxR1 in columns 1-3 and 5-48) were dispensed into Greiner black solid-bottom 1,536-well assay plates, followed by 1 uL of NADPH (400 uM final concentration) to each well. The plates were centrifuged at 1000 rpm for 15 seconds and subsequently incubated for 5 min at room temperature (~22 deg C) to allow for rTrxR1 reduction. Compounds (23 nL) were then transferred via Kalypsys pin tool equipped with 1536-pin array (10 nL slotted pins, V&P Scientific, San Diego, CA). In addition, a duplicate 2-fold serial dilution of the control compounds auranofin, a known gold-based TrxR1 inhibitor, and juglone (5-hydroxy-1,4-naphthoquinone), a natural TrxR1 substrate, were pin-transferred to columns 2 and 3, respectively. After incubation for 15 min at room temperature (~22 deg C), 1 uL of selenite (400 uM final concentration) were dispensed to each well. The plate was immediately transferred to a ViewLux high-throughput CCD imager (PerkinElmer), wherein kinetic measurements of NADPH fluorescence (Ex 340 nm, Em 450 nm) were acquired (8 minute kinetic read, see Table 1). Read 1 was utilized to assess the capacity of a compound to serve as an rTrxR1 substrate, i.e. a decrease in NADPH fluorescence compared to the no-compound background is an indication of a substrate behavior for that particular compound. For inhibitory activity of a compound, delta values, computed as the difference in fluorescence intensity between the first and last reads of an 8-minute time kinetic window, were used. All reagents were diluted in an assay buffer consisting of 50 mM Tris-HCl, pH 7.5, 2 mM EDTA, and 0.01% Tween-20.
Throughout the screen, reagent bottle and all liquid lines were made light-tight to minimize reagent degradation. All screening operations were performed on a fully integrated robotic system (Kalypsys, San Diego, CA) containing one RX-130 and two RX-90 anthropomorphic robotic arms (Staubli, Duncan, SC). Library plates were screened starting from the lowest and proceeding to the highest concentration, and a 'double-pinning' step of the highest concentration was required to access higher concentrations of compounds. Vehicle-only plates, with DMSO being pin-transferred to the columns 5-48, were inserted uniformly at the beginning and the end of each library in order to monitor and record any shifts in the background, which can be affected by reagent dispensers or loss in enzyme activity over time. […]
Further: nearly all actives have a fitted effect of over 65% in size.
Potency means the concentration at half of the fitted maximal effect; tags describe the fitted curve by direction and shape.

UniProt O89049, sequence (O89049 whole entry, looked up): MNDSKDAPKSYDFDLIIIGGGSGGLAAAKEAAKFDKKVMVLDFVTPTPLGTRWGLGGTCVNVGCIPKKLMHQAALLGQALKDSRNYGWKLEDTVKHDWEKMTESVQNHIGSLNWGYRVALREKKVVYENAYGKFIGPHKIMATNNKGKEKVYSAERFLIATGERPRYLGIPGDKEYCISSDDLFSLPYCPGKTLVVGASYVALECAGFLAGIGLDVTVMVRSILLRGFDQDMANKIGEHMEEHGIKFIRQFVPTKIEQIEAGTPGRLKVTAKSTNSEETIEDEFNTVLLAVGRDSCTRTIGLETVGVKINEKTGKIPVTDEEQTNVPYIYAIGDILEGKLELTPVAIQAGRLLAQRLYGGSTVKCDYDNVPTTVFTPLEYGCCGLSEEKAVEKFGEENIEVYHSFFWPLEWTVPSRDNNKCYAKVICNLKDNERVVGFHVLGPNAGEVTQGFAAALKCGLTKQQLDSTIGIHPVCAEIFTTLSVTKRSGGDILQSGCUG

| Compound | Potency |
| --- | --- |
| O=C(Nc1nc(-c2cc3ccccc3o2)cs1)c1ccc(S(=O)(=O)N2CCCC2)cc1 | active: 79.4 µM |
| COC(=O)C1=C(C)NC(C)=C(C(=O)OC)C1c1ccc(-c2cc(Cl)ccc2Cl)o1 | inconclusive: 28.2 µM [inhibitor, single point] |
| CCCn1c(/C=C/c2ccco2)nc2ccccc21 | active: 50.1 µM |
| CN1CCN(c2ccc(-c3cccc(NC(=O)COc4ccc(Cl)cc4)c3)nn2)CC1 | inactive |
| COc1ccc(-c2noc(C3CCCN(C(=O)c4ccccc4C)C3)n2)cc1 (configuration not stated) | inconclusive: 89.1 µM [inhibitor, partial curve, poor fit] |
| CC1=Nc2cc(C(=O)NC3CCCC3)ccc2Sc2ccc(C)cc21 | inactive |
| CCC(=O)Oc1ccc(C/C(=N\O)c2ccc(O)cc2O)o1 | active: 10 µM |
| Cn1c(SCC(=O)c2ccccc2)nnc1C1CC1 | inconclusive: 25.1 µM [inhibitor, single point] |
| COc1ccccc1C(=O)NC(=O)CSc1nnc(N)s1 | inconclusive: 39.8 µM [inhibitor, partial curve] |
| CCOC(=O)N1CCN(C(=O)c2ccc(Cl)c(NC(=O)c3cccs3)c2)CC1 | inactive |
| CC(C)Cn1c(-c2csc3ccccc23)n[nH]c1=S | inconclusive: 35.5 µM [inhibitor, partial curve, poor fit] |
| CC(=O)c1ccc(NC(=O)CC2Nc3cccc4cccc(c34)NC2=O)cc1 (configuration not stated) | inconclusive: 63.1 µM [inhibitor, partial curve, poor fit] |
| COc1ccc(Cn2c(=O)[nH]c3cc(C(=O)Nc4ccccc4C)ccc32)cc1 | inconclusive: 8.91 µM [inhibitor, partial curve] |
| O=C(COC(=O)c1ccccn1)NC12CC3CC(CC(C3)C1)C2 | inactive |
| COc1ccc(NC(=O)/C(C#N)=C/c2ccc(Sc3nncn3C)c([N+](=O)[O-])c2)cc1 | active: 50.1 µM |
| COc1ccc(C(=O)NCCSc2ccccc2)cc1OC | inactive |
| NC(=O)c1ccsc1NC(=O)CCS(=O)(=O)c1ccc(Cl)cc1 | active: 17.8 µM |
| O=C(C1=C[C@@H]2[C@H]3C(=O)N(c4ccc(Cl)cc4)C(=O)[C@H]3[C@@H](C(=O)c3ccc(Cl)cc3)N2C=C1)c1ccccc1 | inconclusive: 56.2 µM [inhibitor, single point] |
| NC(=O)C1(N2CCCCC2)CCN(Cc2ccc(Br)cc2)CC1 | inconclusive: 89.1 µM [inhibitor, single point] |
| COc1ccc(CNC(=O)C2CCN(C(=O)c3cccc(Cl)c3)CC2)cc1 | inconclusive: 89.1 µM [inhibitor, partial curve, poor fit] |
| C=CCNC(=O)c1ccc2c3n(nc2c1)-c1ccc(C)cc1CO3 | inconclusive: 50.1 µM [inhibitor, partial curve] |

| Compound | Potency |
| --- | --- |
| CCOc1cc(-c2ccc3c(c2)OCO3)cc(=[O+]CC)c2c(C)oc(C)c12 | inconclusive: 44.7 µM [inhibitor, partial curve, poor fit] and inconclusive: 79.4 µM [inhibitor, partial curve] |
| Cc1ccc(-n2nc3ccc(N)cc3n2)cc1C | inactive |
| CCCN1C(=O)c2ccccc2NC1c1ccc(Br)cc1 (configuration not stated) | inconclusive: 39.8 µM [inhibitor, partial curve, poor fit] |
| C[C@H](Cc1ccc(O)c(O)c1)[C@@H](C)Cc1ccc(O)c(O)c1 | active: 22.4 µM and active: 12.6 µM |
| Cc1cc2c(cc1S(=O)(=O)Nc1cccc(F)c1)n(C)c(=O)c(=O)n2C | inactive |
| O=C(C[n+]1cn(C(F)F)c2ccccc21)c1ccc(OC(F)F)cc1 | inconclusive: 25.1 µM [inhibitor, single point] |
| O=S(=O)(Nc1ccc(N=Nc2ccccc2)cc1)c1ccccc1 | inconclusive: 89.1 µM [inhibitor, partial curve, poor fit] |
| Cc1ccc2cc(C(c3nnnn3CC3CCCO3)N3CCc4ccccc4C3)c(=O)[nH]c2c1 (configuration not stated) | inconclusive: 79.4 µM [inhibitor, single point] |
| Cc1ccc(S(=O)(=O)NC(=O)c2cc(C)n(CCCn3ccnc3)c2C)cc1 | inconclusive: 70.8 µM [inhibitor, single point] |
| CCSc1nc(O)c(C(c2cccc(OC)c2)c2c(O)nc(SCC)[nH]c2=O)c(=O)[nH]1 | inconclusive: 17.8 µM [inhibitor, partial curve, poor fit] |
| Cc1ccccc1-n1c(-c2ccoc2C)n[nH]c1=S | inactive |
| Cc1nn(C(=O)c2cccc(F)c2)c(C)c1S(=O)(=O)N1CCCCCC1 | inconclusive: 12.6 µM [inhibitor, partial curve] |
| CCN(CC)C(=O)Cn1cc(C(=O)C(=O)N2CCN(Cc3ccccc3)CC2)c2ccccc21 | inconclusive: 79.4 µM [inhibitor, partial curve] |
| O=C(N/N=C/c1cccc2cccnc12)c1ccccc1O | inactive |
| C#CCOCCOCCOCCNc1nc(N2CCN(C(=O)CCCCCCCCCCNC(=O)[C@H](CCCCN)n3cc(CCO)nn3)CC2)nc(N2CCN(C(=O)CCCCCCCCCCNC(=O)[C@H](CCCCN)n3cc(CCO)nn3)CC2)n1 | inconclusive: 20 µM [inhibitor, full curve] |
| COc1ccc(CC2(C)OC(c3ccc(Cl)cc3)=NN2C(C)=O)cc1 (configuration not stated) | inactive |
| NCCc1ccc(O)c(O)c1 | inconclusive: 16.8 µM [inhibitor, partial curve, poor fit] and inconclusive: 14.1 µM [inhibitor, partial curve] |
| CC1=C(C(=O)Nc2ccccc2C)C(c2ccc(C)o2)n2c(s/c(=C/c3ccccc3)c2=O)=N1 (configuration not stated) | inconclusive: 44.7 µM [inhibitor, single point] |
| CCOc1ccc(CNc2ccc(N3CCCC3)cc2)cc1 | inconclusive: 2.82 µM [inhibitor, full curve, poor fit] |
| CC(C)CC(=O)O/N=C1\C(=O)N(c2ccccc2)c2ccccc21 | inactive |
| Cc1ccc(NC(=S)N=Nc2c(O)[nH]c3ccccc23)cc1 | inactive |
